# About 64,000 (15%) of roughly 420,000 compounds were called active. The inconclusive results got no clear call from the source; some entries with a clear call stand among them for comparison. Calls come from the whole dose curve; as a rule, active = well fitted inhibition curve with a large enough effect; inconclusive = small, poorly fitted or top-dose-only effect; inactive = flat fitted curve, though single readings scatter. No potency is given beside an inconclusive call; the fits are too rough.
# Assay: qHTS for Inhibitors of human tyrosyl-DNA phosphodiesterase 1 (TDP1): qHTS in cells in absence of CPT; note: nearly all actives have a fitted effect of over 55% in size
# Settings: DT40 Tdp1-/- hTDP1 cells, no CPT, ATP luminescence, 48 h; activity change, negative = growth inhibition: at 46.2 µM (top of the series)
# Outline: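 Stably hTDP1-transfected Tdp1-null chicken DT40 cells were treated with library compounds minus camptothecin and grown for at least 48 hr at 37 °C, after which cellular ATP was quantified by luminescence.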
# % is set by controls: 0 for no effect and ±100 for the full control effect; potency is the fitted concentration of half-maximal effect; tags give direction and shape of the fitted curve.
Structure (SMILES),Potency,"activity change, negative = growth inhibition"
CCOc1cc(C)c(Cl)cc1S(=O)(=O)n1cnc2ccccc21,"inconclusive [inhibitor, single point]",
O=C(O)c1cc([N+](=O)[O-])c(Sc2nc3ccccc3[nH]2)c([N+](=O)[O-])c1,inactive,
CCCCOC(=O)c1ccc(OC(=O)c2sc3ncn(Cc4cccc(F)c4)c(=O)c3c2C)cc1,inactive,
CC1=C(C(=O)Nc2ccccn2)C(c2ccc(Br)cc2)NC(=S)N1 (configuration not stated),"inconclusive [inhibitor, single point]",
CNC(=O)c1c(NC(=O)CS(=O)(=O)c2ccc(F)cc2)sc(C)c1C,"inconclusive [inhibitor, partial curve]",
COc1cccc(C2CC(c3ccc(NS(C)(=O)=O)cc3)=NN2C(=O)c2ccccc2)c1OC (configuration not stated),"inconclusive [inhibitor, single point]",
CCCN(C(=O)Cc1nc(-c2ccc(OC)cc2)no1)c1ccccc1C,"inconclusive [inhibitor, single point]",
CCc1cccc(C)c1NC(=O)CCCn1c(C)c2cnn(-c3ccccc3)c(=O)c2c1C,"inconclusive [inhibitor, single point]",
Nc1ccccc1N1C(=O)c2cccc3cccc(c23)C1=O,,inconclusive: -34.2% [inhibitor]
Cc1ccc(NC(=O)CCC(=O)NNS(=O)(=O)c2ccccc2)cc1C,"inconclusive [inhibitor, single point]",
C=C(C)COc1ccc(-c2nc(N)ncc2-c2ccc(Cl)cc2)c(O)c1,"inconclusive [inhibitor, single point]",
CC(C)c1ccc(CN2CCC(n3nccc3NC(=O)C3CCCC3)CC2)cc1,"inconclusive [inhibitor, single point]",
Cc1ccc([C@@H]2C[C@H]3[C@@H](CN2S(=O)(=O)c2ccc(Cl)cc2)C(=O)C[C@@H](c2cccc4ccccc24)N3S(=O)(=O)c2ccc(C)cc2)cc1,inactive,
Cc1cc(S(=O)(=O)NCCCN2CCOCC2)c(C)cc1Cl,inactive,
Cc1ccc(-c2nnc(SCC(=O)Nc3ccccc3N3CCOCC3)o2)cc1,,inconclusive: -32.5% [inhibitor]
COc1ccc(NC(=O)N2CCCCCC2)cc1OC,inactive,
COc1ccc2c(C)c(CCC(=O)NCCc3ccc(OC)c(OC)c3)c(=O)oc2c1,"inconclusive [inhibitor, single point]",
Cc1nc([N+](=O)[O-])cn1-c1nc2ccccn2c1[N+](=O)[O-],inactive,
COc1ccc(C(=O)Nc2nnc(SCc3cc(=O)c4cccc(F)c4[nH]3)s2)cc1,"inconclusive [inhibitor, partial curve]",
COc1ccc(C(=O)N/C(=C\c2cn(C)c3ccccc23)C(=O)NCCN2CCOCC2)cc1OC,inactive,
O=C1OC(c2ccc3c(c2)OCO3)N(C(=O)c2ccc(Cl)c(Cl)c2)c2ccccc21 (configuration not stated),,inconclusive: -30% [inhibitor]

Structure (SMILES),Potency,"activity change, negative = growth inhibition"
COc1cccc(C(=O)N/N=C(\C)c2cccc(NC(=O)c3ccc(F)cc3)c2)c1OC,active: 23.1 µM,
Nc1cc(-c2ccc(Cl)cc2)nn1S(=O)(=O)c1ccc(Cl)cc1,,inconclusive: -32% [inhibitor]
COc1cccc(-c2nnc(SCC(=O)N(C)c3ccccc3)o2)c1,active: 10.3 µM,
CC(=O)Nc1cc(C(=O)NCc2ccc(F)cc2)ccc1S(=O)(=O)c1ccc(C)cc1,"inconclusive [inhibitor, single point]",
CC(C)(C)OC(=O)N1CCCN(C(=O)Nc2cccc(Cl)c2)CC1,"inconclusive [inhibitor, partial curve, poor fit]",
COc1ccc(CCNc2nc(-c3ccco3)cc(C(F)(F)F)n2)cc1OC,"inconclusive [inhibitor, single point]",
O=C(Nc1ncc(Cc2cccc(Cl)c2)s1)c1cccs1,"inconclusive [inhibitor, single point]",
CC(C)N(Cc1nccn1C)C(=O)c1cc(COc2ccc(-n3cncn3)cc2)on1,"inconclusive [inhibitor, full curve, poor fit]",
CC1CC2(C)CC(C)C1(COC(=O)Nc1ccccc1)CO2 (configuration not stated),"inconclusive [inhibitor, partial curve, poor fit]",
CCN(CC)c1ccc(NS(=O)(=O)c2cc(-c3onc(C)c3C)ccc2OC)c(C)c1,"inconclusive [inhibitor, single point]",
COc1ccc(C(=O)NC2CC(C)(C)NC(C)(C)C2)cc1OC,inactive,
O=C(CSc1nc2ccccc2s1)NC(=O)NCc1ccco1,inactive,
CCN(CC)CCCNC(=O)Cn1ncc2c3ccccc3n(Cc3ccccc3)c2c1=O,inactive,
CN1/C(=C/C2CC(=O)N(c3cccc4ccccc34)C2=O)C(C)(C)c2ccccc21 (configuration not stated),"inconclusive [inhibitor, single point]",
Cc1noc(C)c1S(=O)(=O)Nc1ccc2c(c1)CC(=O)N([C@H](C)CO)C[C@H](C)[C@H](CN(C)S(=O)(=O)c1ccc(F)cc1)O2,"inconclusive [inhibitor, single point]",
Cc1ccc(NC(=O)CSc2ccc(C(N)=O)cc2[N+](=O)[O-])cc1C,active: 16.4 µM,
CC1=NN(C2=NS(=O)(=O)c3ccccc32)C(C)(O)C1 (configuration not stated),active: 0.366 µM,
COC(=O)/C=c1\sc2n(c1=O)C(C)=CC(C)(C)N=2,"inconclusive [inhibitor, partial curve]",
COc1ccc(OCC(=O)Nc2ccccc2-c2ccccc2)cc1,"inconclusive [inhibitor, single point]",
CN(C)CCn1cnc2c(c1=N)C(c1ccccc1)c1ccc3ccccc3c1O2 (configuration not stated),"inconclusive [inhibitor, single point]",
CCn1c2ccccc2c2cc(CN3CCN(Cc4ccc(Cl)cc4)CC3)ccc21,"inconclusive [inhibitor, single point]",

# Source: PubChem BioAssay AID686978 (National Center for Advancing Translational Sciences (NCATS), 2013)
